This is one part of the list.

This note sets out measurements from the antibiotic and cytotoxicity screens of Wong et al. (2023).

In one test the test system is HSkMC. As to the kind of experiment: cytotoxicity call (relative viability < 0.9). As to conditions: 10 µM.
For the next test, the system named is HepG2. As to the kind of experiment: cytotoxicity call (relative viability < 0.9). As to conditions: 10 µM.
The next test relates to S. aureus RN4220. As to the kind of experiment: growth inhibition call (relative growth <= 0.2). The note with it: 50 µM.

Turning to `Cc1noc(C)c1NC(=O)N(C)C[C@@H]1OCCCC[C@H](C)Oc2ccc(NC(=O)CCC(F)(F)F)cc2C(=O)N([C@H](C)CO)C[C@H]1C`, the cytotoxicity call in the test with HSkMC and with HepG2 was “inactive” throughout. Moreover, the growth inhibition call in the test on S. aureus RN4220 was “inactive”.
As to `C[C@@H]1CCCCO[C@@H](CN(C)Cc2ccc(C(=O)Nc3ccccc3N)cc2)[C@@H](C)CN([C@H](C)CO)C(=O)c2cc(NC(=O)Nc3ccc4c(c3)OCO4)ccc2O1`, the cytotoxicity call with HSkMC and with HepG2 was “inactive” throughout. In addition, the growth inhibition call in the test on S. aureus RN4220 is “inactive”.
`C[C@H](CO)N1C[C@H](C)[C@H](CN(C)C(=O)Nc2ccc3c(c2)OCO3)Oc2ncc(-c3cncnc3)cc2C1=O`: the cytotoxicity call with HSkMC and with HepG2 was “inactive” in each case. Also, the growth inhibition call in the test with S. aureus RN4220 is “inactive”.
Take `CSc1ccc(Sc2ccc(SC)cc2)cc1`: the cytotoxicity call with HSkMC and with HepG2 was “inactive” throughout. For the same compound, the growth inhibition call in the test on S. aureus RN4220 was “inactive”.
Consider `COc1cccc(S(=O)(=O)N[C@H]2CC[C@H](CC(=O)NC3CCC3)O[C@H]2CO)c1`, for which the cytotoxicity call in the test on HSkMC and in the test with HepG2 was “inactive” in each case. In addition, the growth inhibition call with S. aureus RN4220 was “inactive”.
`COc1ccc(C#Cc2cnc3c(c2)C(=O)N([C@@H](C)CO)C[C@@H](C)[C@H](CN(C)CC2CCOCC2)O3)cc1`: the cytotoxicity call in the test on HSkMC and in the test on HepG2 was “inactive” each time. Further, the growth inhibition call in the test on S. aureus RN4220 is “inactive”.
For the compound `C[C@@H]1CN([C@@H](C)CO)C(=O)c2cc(NC(=O)Nc3ccccc3)ccc2O[C@@H](C)CCCCO[C@H]1CN(C)S(=O)(=O)c1cccs1`, the cytotoxicity call with HSkMC and with HepG2 was “inactive” in each case. Also, the growth inhibition call in the test on S. aureus RN4220 is “inactive”.
As to `C[C@H]1CN([C@@H](C)CO)C(=O)c2cc(NC(=O)Cc3cn(C)c4ccccc34)ccc2O[C@H]1CN(C)Cc1ccc(C(F)(F)F)cc1`, the cytotoxicity call with HSkMC and in the test with HepG2 was “inactive” each time. In the test with S. aureus RN4220, the growth inhibition call was “inactive”.
Regarding `C[C@H](CO)N1C[C@H](C)[C@H](CN(C)Cc2ccc(C(F)(F)F)cc2)Oc2ccc(NC(=O)Nc3cccc4ccccc34)cc2C1=O`, the cytotoxicity call in the test with HSkMC is “inactive”. The cytotoxicity call with HepG2 was “active”. Moreover, in the test with S. aureus RN4220, the growth inhibition call is “inactive”.
Regarding `CCc1nn(CCCN2CCN(c3cccc(Cl)c3)CC2)c(=O)n1CCOc1ccccc1`, the cytotoxicity call in the test with HSkMC was “inactive”. For the same compound, the cytotoxicity call in the test on HepG2 was “active”. Besides, in the test on S. aureus RN4220, the growth inhibition call is “inactive”.
`Cc1ccc(S(=O)(=O)N(C)C[C@H]2Oc3ccc(NC(=O)Cn4cnnn4)cc3C(=O)N([C@@H](C)CO)C[C@@H]2C)cc1`: the cytotoxicity call with HSkMC and in the test with HepG2 was “inactive” each time. For the same compound, the growth inhibition call in the test with S. aureus RN4220 was “inactive”.
As for `Cc1noc(C)c1NC(=O)N(C)C[C@H]1Oc2ncc(C#CCC(C)C)cc2C(=O)N([C@H](C)CO)C[C@@H]1C`, the cytotoxicity call in the test with HSkMC and in the test with HepG2 was “inactive” throughout. The growth inhibition call with S. aureus RN4220 was “inactive”.
For `C[C@H]1CCCCO[C@H](CN(C)S(=O)(=O)c2ccc(F)cc2)[C@@H](C)CN([C@@H](C)CO)C(=O)c2cc(NC(=O)Cc3ccccc3)ccc2O1`, the cytotoxicity call in the test with HSkMC and in the test on HepG2 was “inactive” throughout. Moreover, the growth inhibition call in the test on S. aureus RN4220 was “inactive”.
Regarding `O=C(CCCCC(=O)Nc1c(I)cc(I)c(C(=O)O)c1I)Nc1c(I)cc(I)c(C(=O)O)c1I`, the cytotoxicity call with HSkMC and in the test on HepG2 was “inactive” in each case. Further, in the test on S. aureus RN4220, the growth inhibition call is “inactive”.
`C[C@@H]1CCCCO[C@@H](CN(C)S(C)(=O)=O)[C@@H](C)CN([C@H](C)CO)C(=O)c2cc(NS(=O)(=O)c3ccc(F)cc3)ccc2O1`: the cytotoxicity call in the test with HSkMC and with HepG2 was “inactive” in each case. The growth inhibition call with S. aureus RN4220 is “inactive”.
Take `O=C(CCCCCNC(=O)OCc1ccc(CO[C@@H]2C[C@H](c3ccc(Br)cc3)C=C(C(=O)N3CCN(Cc4ccccc4)CC3)O2)cc1)NO`: the cytotoxicity call with HSkMC and in the test with HepG2 was “inactive” each time. Moreover, the growth inhibition call in the test with S. aureus RN4220 is “inactive”.
Regarding `COc1ccc(CN(C)C[C@@H]2OCCCC[C@@H](C)Oc3ccc(NC(=O)CCC(F)(F)F)cc3C(=O)N([C@H](C)CO)C[C@H]2C)cc1`, the cytotoxicity call with HSkMC and in the test with HepG2 was “inactive” throughout. For the same compound, in the test on S. aureus RN4220, the growth inhibition call was “inactive”.
Consider `C[C@@H]1CN([C@H](C)CO)C(=O)Cc2cc(NS(C)(=O)=O)ccc2O[C@H]1CN(C)Cc1ccc2c(c1)OCO2`, for which the cytotoxicity call in the test with HSkMC and with HepG2 was “inactive” throughout. Further, in the test on S. aureus RN4220, the growth inhibition call is “inactive”.
Regarding `COc1ccc(NC(=O)N(C)C[C@@H]2OCCCC[C@@H](C)Oc3ccc(NC(=O)NC4CCCCC4)cc3C(=O)N([C@@H](C)CO)C[C@H]2C)cc1`, the cytotoxicity call in the test on HSkMC and in the test with HepG2 was “inactive” in each case. In addition, in the test on S. aureus RN4220, the growth inhibition call is “inactive”.
With `N=C(N)NS(=O)(=O)c1ccc(N)cc1`, the cytotoxicity call in the test on HSkMC and in the test on HepG2 was “inactive” each time. Also, the growth inhibition call in the test with S. aureus RN4220 was “inactive”.
Consider `C[C@H](CO)N1C[C@H](C)[C@@H](CN(C)C(=O)Nc2ccc(F)cc2)Oc2ccc(NS(=O)(=O)c3cn(C)cn3)cc2C1=O`, for which the cytotoxicity call in the test with HSkMC and in the test with HepG2 was “inactive” throughout. Besides, in the test on S. aureus RN4220, the growth inhibition call is “inactive”.
Turning to `Cc1cc(C(=O)Nc2cccc3c2O[C@H](CN(C)S(=O)(=O)c2ccc(Cl)cc2)[C@@H](C)CN([C@@H](C)CO)C3=O)n(C)n1`, the cytotoxicity call in the test on HSkMC and in the test with HepG2 was “inactive” each time. In addition, the growth inhibition call with S. aureus RN4220 was “inactive”.
As for `CSc1nc2nc(N)nc(N)c2s1`, the cytotoxicity call in the test with HSkMC and in the test on HepG2 was “inactive” each time. For the same compound, the growth inhibition call in the test on S. aureus RN4220 was “inactive”.
Regarding `C[C@@H]1CCCCO[C@@H](CN(C)C(=O)c2ccncc2)[C@@H](C)CN([C@H](C)CO)C(=O)c2cc(NS(C)(=O)=O)ccc2O1`, the cytotoxicity call with HSkMC and in the test on HepG2 was “inactive” in each case. Besides, the growth inhibition call in the test with S. aureus RN4220 is “inactive”.
In the case of `CC(C)CC#Cc1ccc2c(c1)O[C@H](CN(C)S(=O)(=O)c1ccc(F)cc1)[C@@H](C)CN([C@@H](C)CO)S2(=O)=O`, the cytotoxicity call in the test on HSkMC and in the test with HepG2 was “inactive” throughout. In the test with S. aureus RN4220, the growth inhibition call was “inactive”.
As to `Cc1noc(C)c1S(=O)(=O)Nc1ccc2c(c1)CC(=O)N([C@@H](C)CO)C[C@@H](C)[C@H](CN(C)Cc1ccc(-c3ccccc3)cc1)O2`, the cytotoxicity call with HSkMC is “active”. For the same compound, the cytotoxicity call with HepG2 is “inactive”. In the test on S. aureus RN4220, the growth inhibition call is “inactive”.
Regarding `C[C@@H]1CN([C@H](C)CO)C(=O)c2cc(NC(=O)c3ccccc3)ccc2O[C@@H](C)CCCCO[C@H]1CN(C)C(=O)Nc1cccc2ccccc12`, the cytotoxicity call in the test on HSkMC (human skeletal muscle cells) was “inactive”. The cytotoxicity call in the test with HepG2 was “active”. For the same compound, in the test on S. aureus RN4220, the growth inhibition call is “inactive”.
